The source of these data is article PMC4336329 (PLoS ONE, 2015).

In all, about 310,000 compounds went through this assay and about 14,000 (4.5%) showed an effect of 50% or more. Effects have a minus sign here. The list shows a part of the results.
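Note: peak tail current of the secondary pulse compared with the same well before compound.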

human ether-à-go-go-related gene (hERG) potassium channel, sequence (Q12809 whole entry, looked up): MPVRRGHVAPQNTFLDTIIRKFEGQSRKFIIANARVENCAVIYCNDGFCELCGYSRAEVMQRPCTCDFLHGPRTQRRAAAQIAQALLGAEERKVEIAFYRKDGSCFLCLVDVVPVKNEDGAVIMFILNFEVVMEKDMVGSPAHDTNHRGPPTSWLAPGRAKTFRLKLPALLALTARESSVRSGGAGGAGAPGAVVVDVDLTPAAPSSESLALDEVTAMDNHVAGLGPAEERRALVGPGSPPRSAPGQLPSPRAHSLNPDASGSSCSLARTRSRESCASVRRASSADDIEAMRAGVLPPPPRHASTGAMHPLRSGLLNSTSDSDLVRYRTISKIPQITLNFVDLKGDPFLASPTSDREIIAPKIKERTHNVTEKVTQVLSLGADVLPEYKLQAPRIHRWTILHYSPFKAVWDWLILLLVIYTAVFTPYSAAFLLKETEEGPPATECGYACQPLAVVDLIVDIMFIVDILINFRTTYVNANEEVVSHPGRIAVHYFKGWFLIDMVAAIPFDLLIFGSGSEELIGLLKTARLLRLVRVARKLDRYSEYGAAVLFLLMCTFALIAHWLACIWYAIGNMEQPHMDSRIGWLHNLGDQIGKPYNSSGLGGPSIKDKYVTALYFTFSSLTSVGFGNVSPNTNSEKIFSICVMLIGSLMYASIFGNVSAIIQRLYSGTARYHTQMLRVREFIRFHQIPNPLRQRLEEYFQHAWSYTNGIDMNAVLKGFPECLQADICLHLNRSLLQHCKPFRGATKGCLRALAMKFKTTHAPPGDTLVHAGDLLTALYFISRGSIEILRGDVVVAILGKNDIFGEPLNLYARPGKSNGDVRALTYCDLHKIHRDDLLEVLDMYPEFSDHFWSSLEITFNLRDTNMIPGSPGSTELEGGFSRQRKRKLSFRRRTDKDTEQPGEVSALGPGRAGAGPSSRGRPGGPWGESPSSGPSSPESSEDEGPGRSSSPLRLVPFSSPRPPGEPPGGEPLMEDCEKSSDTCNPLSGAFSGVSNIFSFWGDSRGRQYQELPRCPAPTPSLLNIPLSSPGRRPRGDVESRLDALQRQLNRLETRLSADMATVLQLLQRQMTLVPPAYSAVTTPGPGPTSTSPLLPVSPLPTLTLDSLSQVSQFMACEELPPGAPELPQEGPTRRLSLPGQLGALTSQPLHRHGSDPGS

This assay concerns the target human ether-à-go-go-related gene (hERG) potassium channel (human, UniProt Q12809). Put plainly: primary screen, population patch clamp on CHO cells stably expressing hERG.
With `CNc1nnc(-c2ccncc2)s1`, the “hERG current change (%, negative = inhibition) at 10uM” value was -0.587%.
For `Cc1csc(NC(=O)C2CC(=O)N(c3ccc(C)c(C)c3)C2)n1` (centres unmarked) the value was 9.45%; for `Cc1ccccc1Cn1nnc(-c2ccc(C(=O)O)cc2)n1`, 5.45%; for `COCc1cc(Sc2ccc(Cl)cc2Cl)nc(-c2ccccc2)n1`, 11.4%.
For `Cc1cc([N+](=O)[O-])nn1CC(=O)N1CCCc2ccccc21` the value was -1.79%.
For `Cc1cc(C)n(C(=O)CCNC(=O)c2ccccc2Cl)n1` the value was 6.77%; for `Cc1sc[n+](CC(=O)c2ccc(Br)cc2)c1C.[Br-]`, -12.7%.
`O=S(=O)(Nc1ccccc1)c1ccc(Oc2ncc(C(F)(F)F)cc2Cl)cc1`: the “hERG current change (%, negative = inhibition) at 10uM” value is listed as -3.02%.
The result for `CC(C)Oc1cccc(C(=O)Nc2ccc(N3CCN(C)CC3)cc2)c1` reads -24.5%.
`CC1CCCCC1NC(=O)c1ccncc1` (centres unmarked): the “hERG current change (%, negative = inhibition) at 10uM” value stood at 6.03%.
Regarding `CCC(C)[C@H](NS(=O)(=O)c1ccc(C)cc1)C(=O)N1CCC(C(=O)N2CCC(C(=O)OC)CC2)CC1` (some centres unmarked), the “hERG current change (%, negative = inhibition) at 10uM” value is -1.88%.
For `Cc1ccc(C(=O)Cn2c3[n+](c4ccccc42)CC(O)CS3)cc1.[Br-]` (centres unmarked) the value was 20.4%.
For `CCOc1ccc(CN(C)C(=O)CCc2ccc(S(=O)(=O)N3CCCCCC3)cc2)cc1` the value was -45.1%; for `CS(=O)(=O)c1ccc(-c2cn3cc(C(=O)O)ccc3n2)cc1`, 25.9%; for `O=C(CCN1CCCC1)Nc1cccc(Br)c1`, -20.6%.
With `Cc1ccc(NC(=O)CN(C)CC(=O)Nc2ccccc2Oc2ccccc2)cc1.O=C(O)C(=O)O`, the “hERG current change (%, negative = inhibition) at 10uM” value is listed as 16.1%.
For `CC1=C(C(=O)Nc2ccccn2)C(c2cccnc2)n2nnnc2N1` (centres unmarked) the value was 6.57%.
For `COc1cccc(NC(=O)COC(=O)c2nc3nccc(C)n3n2)c1` the value was -5.88%; for `CC1(C)CC(=O)N(c2ccc(C#N)cc2)C(=O)C1`, 18.5%; for `CCOC(=O)c1ccc(NC(=O)CNC(=O)c2ccco2)cc1`, 13.8%.
For `CN(c1ccccc1)c1nc2ccsc2c(=O)s1` the value was 4.47%; for `O=C(NCc1ccco1)C1CCCN1C(=O)Nc1ccccc1` (centres unmarked), -1.65%.
As for `O=[N+]([O-])c1cc(-c2ccc(/C=N/n3cnnc3)o2)ccc1Cl`, the “hERG current change (%, negative = inhibition) at 10uM” value is on record as -12.5%.
In the case of `Cn1c(SCC(=O)c2ccccc2)ncc(C(=O)Nc2ccc(F)cc2)c1=O`, the “hERG current change (%, negative = inhibition) at 10uM” value is reported as 12.4%.
The result for `Cc1ccc(N2CC(C(=O)Nc3nnc(SCCC4OCCO4)s3)CC2=O)cc1` (centres unmarked) reads 8.84%.
The result for `COc1ccccc1N1CCN(CCc2n[nH]c(=S)n2-c2ccccc2)CC1` reads 8.54%.
The result for `CC(C)(C)NC(=O)CCC1COc2ccccc2O1` (centres unmarked) reads -4.27%; that for `CCOc1ccc(/C=C(\C#N)C(=O)NCC2CCCO2)cc1OCC` (centres unmarked), -5.95%.
As for `CN1CCN(S(=O)(=O)c2ccc(NC(=O)C3CCCO3)cc2)CC1` (centres unmarked), the “hERG current change (%, negative = inhibition) at 10uM” value is recorded as -4.63%.
The result for `CCOP(=O)(OCC)C(O)c1ccc2c(c1)OCO2` (centres unmarked) reads 12.2%; that for `CNC(=O)/C(=C\c1cccc(Oc2ccccc2)c1)NC(=O)c1ccccc1`, 12.4%.
For `Cc1ccc(C)c(OCC(=O)N(C)CC(=O)Nc2ccc(Cl)c(C(F)(F)F)c2)c1` the value was 1.6%; for `COc1ccc(NC(=O)C2CCCN(S(=O)(=O)c3ccc4c(c3)CCCN4C(C)=O)C2)cc1Cl` (centres unmarked), 9.52%; for `Cc1nn(CC(=O)NCCCc2ccccc2)c(C)c1[N+](=O)[O-]`, -2.28%.
The result for `CCc1nc2ccccc2c(=O)n1/N=C/c1ccc(OC)cc1` reads -1.67%.
On to `O=C(NCCCCc1ccccc1)C1CC(c2ccccc2[N+](=O)[O-])=NO1` (centres unmarked), for which the “hERG current change (%, negative = inhibition) at 10uM” value was -32.9%.
For `CC(C)(C)c1ccc(CNc2cc(N3CCOCC3)ccc2[N+](=O)[O-])cc1` the value was 15.3%.
For `O=C(CN1C(=O)NC2(CCCC2)C1=O)Nc1nc(-c2ccc(F)cc2)cs1` the value was 3.26%; for `Cc1ccc(NC(=S)N(CCCN(C)C)Cc2cc3cc4c(cc3[nH]c2=O)OCO4)c(C)c1`, -35%; for `CN1C(C(=O)NCc2cccc(C(F)(F)F)c2)CC2Cn3c(nc4cc(Cl)c(Cl)cc43)C21` (centres unmarked), -73.6%.
The result for `COc1ccc(OC(=O)COc2ccc(C)cc2)cc1` reads 20.5%; that for `CCOC(=O)c1ccc(NC(=O)CC2SC3=NCCN3C2=O)cc1` (centres unmarked), 9.01%.
In the case of `CCc1cc(=O)oc2cc(OCC(=O)NC3CC(C)(C)NC(C)(C)C3)ccc12`, the “hERG current change (%, negative = inhibition) at 10uM” value amounted to 9.86%.
As for `CC1CCCN(C(=O)CN2C3CCC2CC(O)(c2ccc(F)cc2)C3)C1` (centres unmarked), the “hERG current change (%, negative = inhibition) at 10uM” value is -6.54%.
As to `CSC1=NCCN1C(=O)COc1ccc2ccccc2c1`, the “hERG current change (%, negative = inhibition) at 10uM” value is given as 12.6%.
The result for `CC(=O)Nc1nc2cc(C(N)=O)ccc2s1` reads -4.58%.
Take `Cc1[nH]c2ccccc2c1/C=N/NC(=O)CNC(=O)c1ccccc1`: the “hERG current change (%, negative = inhibition) at 10uM” value is given as -9.38%.
The result for `CN1CCN(C(=O)c2ccccc2N(Cc2ccccc2)S(C)(=O)=O)CC1` reads -4.91%; that for `CCN(c1ccccc1)S(=O)(=O)c1ccc2c(c1)CCCN2C(C)=O`, 0.361%.
The result for `CC(=O)Nc1ccc(S(=O)(=O)CCC(=O)O)cc1` reads 17.5%; that for `CCN(CC)CC(O)CN1c2ccccc2Sc2ccccc21` (centres unmarked), -25%; that for `CC(=O)Nc1ccc(OCC(=O)c2cc(C)ccc2C)cc1`, 9.21%.
For `Cn1cc(C(=O)Nc2ccc3c(c2)CCC3)cn1` the value was 1.88%.
Regarding `Cc1nc(N=Nc2ccc(O)cc2)n[nH]1`, the “hERG current change (%, negative = inhibition) at 10uM” value is 7.01%.
The result for `NNC(=O)c1ccccc1CO` reads 3.65%.
For `COc1ccc(-c2nnc3ccc(SCC(=O)N4CCCCC4)nn23)cc1OC` the value was -14.4%; for `CCOc1ccc2[nH]c3c(NCCc4ccc(OC)c(OC)c4)ncnc3c2c1`, -17.3%; for `COCCC(=O)N1CCC(Oc2ccc(C(=O)N(C)C3CCCCC3)cc2)CC1`, 15.6%.
The result for `Cn1c(=O)n(C)c2cc(NC(=O)c3ccc(F)cc3)c(Br)cc21` reads 7.81%; that for `O=C(NCCN1CCOCC1)c1cc(-c2ccc(Cl)cc2Cl)on1`, -10.2%.
As to `Cc1cc(C)c(S(=O)(=O)N2CCCCC2CCNC(=O)C(=O)NCc2ccccn2)c(C)c1` (centres unmarked), the “hERG current change (%, negative = inhibition) at 10uM” value is -9.72%.
For `COC(=O)CN(C#N)c1nc(NCc2ccccc2)nc(OC)n1` the value was -1.33%; for `Nc1ccnn1Cc1cccnc1`, 2.63%; for `COCc1cc(CN2CCCC2)c(O)c2ncccc12`, -10.4%.
For `COC(=O)c1ccc(S(=O)(=O)NCc2ccco2)o1` the value was 6.1%; for `COc1ccc(C(NC(C)=O)c2c(O)ccc3ccccc23)cc1OC` (centres unmarked), -0.144%.
Regarding `CCn1nc(C)c(NC(=O)c2cc(Br)ccc2Cl)c1C`, the “hERG current change (%, negative = inhibition) at 10uM” value was -0.748%.
For the compound `CC(C)C(=O)N1c2ccccc2NC2=C(C(=O)CCC2)C1c1ccc(N(C)C)cc1` (centres unmarked), the “hERG current change (%, negative = inhibition) at 10uM” value is given as -2.84%.
Take `CNC(=O)Nc1ccc(C2SCCS2)cc1`: the “hERG current change (%, negative = inhibition) at 10uM” value is 7.02%.
For `Cc1cccc(C(=O)O/N=C(\N)c2ccc(Br)cc2)c1` the value was 11.6%; for `CC(=O)c1ccc2noc(-c3ccc(C)cc3)c2c1`, -0.176%; for `CC1=C(C(=O)OC(C)C)C(c2cncc(-c3ccc(F)cc3)c2)C(C#N)=C(N)O1` (centres unmarked), -28.6%.
For `COc1cc(-c2nc3oc4ccccc4c(=O)c3c(=O)n2Cc2ccco2)cc(OC)c1OC` the value was -1.9%; for `CC(=O)Nc1ccc(S(=O)(=O)Nc2cccc(-c3nc4cc(C)ccc4o3)c2)cc1`, 3.15%; for `COc1ccccc1NS(=O)(=O)c1cc([N+](=O)[O-])ccc1N/N=C/c1c(C)[nH]c2ccccc12`, 14.8%.
For `Cc1ccc(NC(=O)Cc2nn(C)c(=O)c3ccccc23)cc1F` the value was 9.52%.
Turning to `COc1cc(OC)cc(C(=O)NNC(=O)c2ccccn2)c1`, the “hERG current change (%, negative = inhibition) at 10uM” value came to 2.16%.
For `Cc1cnccc1CN(C)Cc1cn(C)nc1-c1ccc(Oc2ccccc2)cc1` the value was -27.4%; for `CN1C(=S)SC2CS(=O)(=O)CC21` (centres unmarked), 7.75%; for `NC(=O)C1CCN(C(=O)c2cccc3ccccc23)CC1`, 11.1%.
For `CCOC(=O)C1CCCN(Cc2ccccc2OCC)C1` (centres unmarked) the value was -2.92%; for `Cc1ccc(S(=O)(=O)N2CCCC2C(=O)Nc2nc3c(s2)CCCC3)cc1` (centres unmarked), -10.9%.
The result for `CC1=NS(=O)(=O)c2cc(Cl)ccc2N1` reads -2.63%.
Take `CCOc1ccc(CN2CCSCC2)cc1`: the “hERG current change (%, negative = inhibition) at 10uM” value worked out at 2.36%.
The result for `CCn1c(SCc2nc3ccccc3c(=O)[nH]2)nnc1-c1cccnc1` reads -16.6%; that for `Br.N=C(N)SCc1nc2ccccc2c(=O)n1-c1ccccc1Cl`, -21.9%; that for `CC(=O)C1=C(C)N(Cc2ccccc2)C(=O)N[C@H]1c1cccs1`, 2.42%.
The result for `O=C(O)C1CC=CCC1C(=O)Nc1cccnc1` (centres unmarked) reads 10.5%.
For `Cc1cc(=O)[nH]c2c(C)cc(S(=O)(=O)Nc3ccc(O)cc3)cc12` the value was 5.1%; for `COc1ccc(S(=O)(=O)Cc2ccc(C(=O)N3CC(C)CC(C)C3)o2)cc1` (centres unmarked), -14.2%.
Consider `COc1cc(C)c(C)cc1S(=O)(=O)NC1CC(C)(C)NC(C)(C)C1`, for which the “hERG current change (%, negative = inhibition) at 10uM” value turned out to be 2.92%.
For `CCC(C(=O)Nc1ccc(C(=O)N2CCCC2)cc1)c1ccccc1` (centres unmarked) the value was -1.42%.
